The source of these data is PMC9911399, “Two distinct binding modes provide the RNA-binding protein RbFox with extraordinary sequence specificity”.

B1: CGGGGUU (DNA:RNA)
RNA: GGGAGACCGGAAUUCAGAUUGUCCCGGGGUUUUAAAUCCCGUCGUAGCCACCA
DNA 1: CAATCTGAATTCCGGTCTCCC
DNA 2: TGGTGGCTACGACGGGATT
B2: ACGGGGU (DNA:RNA)
RNA: B1 RNA with C25A, G26C, U30G
DNA 1: CAATCTGAATTCCGGTCTCCC
DNA 2: TGGTGGCTACGACGGGATT
B3: AGUUACC (DNA:RNA)
RNA: B1 RNA with C25A, G27U, G28U, G29A, U30C, U31C
DNA 1: CAATCTGAATTCCGGTCTCCC
DNA 2: TGGTGGCTACGACGGGATT
B4: UUUGGCA (DNA:RNA)
RNA: B1 RNA with C25U, G26U, G27U, U30C, U31A
DNA 1: CAATCTGAATTCCGGTCTCCC
DNA 2: TGGTGGCTACGACGGGATT
B5: GCAGAAC (DNA:RNA)
RNA: B1 RNA with C25G, G26C, G27A, G29A, U30A, U31C
DNA 1: CAATCTGAATTCCGGTCTCCC
DNA 2: TGGTGGCTACGACGGGATT
B6: UAAGGCU (DNA:RNA)
RNA: B1 RNA with C25U, G26A, G27A, U30C
DNA 1: CAATCTGAATTCCGGTCTCCC
DNA 2: TGGTGGCTACGACGGGATT
B7: AUGAGAA (DNA:RNA)
RNA: B1 RNA with C25A, G26U, G28A, U30A, U31A
DNA 1: CAATCTGAATTCCGGTCTCCC
DNA 2: TGGTGGCTACGACGGGATT
B8: UCUGAGG (DNA:RNA)
RNA: B1 RNA with C25U, G26C, G27U, G29A, U30G, U31G
DNA 1: CAATCTGAATTCCGGTCTCCC
DNA 2: TGGTGGCTACGACGGGATT
B9: GUGUUUU (DNA:RNA)
RNA: B1 RNA with C25G, G26U, G28U, G29U
DNA 1: CAATCTGAATTCCGGTCTCCC
DNA 2: TGGTGGCTACGACGGGATT
B10: GAAGGAU (DNA:RNA)
RNA: B1 RNA with C25G, G26A, G27A, U30A
DNA 1: CAATCTGAATTCCGGTCTCCC
DNA 2: TGGTGGCTACGACGGGATT
B11: AACAGUC (DNA:RNA)
RNA: B1 RNA with C25A, G26A, G27C, G28A, U31C
DNA 1: CAATCTGAATTCCGGTCTCCC
DNA 2: TGGTGGCTACGACGGGATT
B12: CGGGGAU (DNA:RNA)
RNA: B1 RNA with U30A
DNA 1: CAATCTGAATTCCGGTCTCCC
DNA 2: TGGTGGCTACGACGGGATT
B13: GUGCAAG (DNA:RNA)
RNA: B1 RNA with C25G, G26U, G28C, G29A, U30A, U31G
DNA 1: CAATCTGAATTCCGGTCTCCC
DNA 2: TGGTGGCTACGACGGGATT
B14: AGCCCUU (DNA:RNA)
RNA: B1 RNA with C25A, G27C, G28C, G29C
DNA 1: CAATCTGAATTCCGGTCTCCC
DNA 2: TGGTGGCTACGACGGGATT
B15: AUCACCA (DNA:RNA)
RNA: GGGAGACCGGAAUUCAGAUUGUCCAUCACCAUUAAAUCCCGUCGUAGCCACCA
DNA 1: CAATCTGAATTCCGGTCTCCC
DNA 2: TGGTGGCTACGACGGGATT
B16: UCAUCGU (DNA:RNA)
RNA: B15 RNA with A25U, U26C, C27A, A28U, C30G, A31U
DNA 1: CAATCTGAATTCCGGTCTCCC
DNA 2: TGGTGGCTACGACGGGATT
B17: UGAUGAA (DNA:RNA)
RNA: B1 RNA with C25U, G27A, G28U, U30A, U31A
DNA 1: CAATCTGAATTCCGGTCTCCC
DNA 2: TGGTGGCTACGACGGGATT
B18: AAGCUGU (DNA:RNA)
RNA: B1 RNA with C25A, G26A, G28C, G29U, U30G
DNA 1: CAATCTGAATTCCGGTCTCCC
DNA 2: TGGTGGCTACGACGGGATT
B19: GUAACAG (DNA:RNA)
RNA: B15 RNA with A25G, C27A, C30A, A31G
DNA 1: CAATCTGAATTCCGGTCTCCC
DNA 2: TGGTGGCTACGACGGGATT
B20: UGUCAGU (DNA:RNA)
RNA: B1 RNA with C25U, G27U, G28C, G29A, U30G
DNA 1: CAATCTGAATTCCGGTCTCCC
DNA 2: TGGTGGCTACGACGGGATT
B21: GAUCGUC (DNA:RNA)
RNA: B1 RNA with C25G, G26A, G27U, G28C, U31C
DNA 1: CAATCTGAATTCCGGTCTCCC
DNA 2: TGGTGGCTACGACGGGATT
B22: CAGCAAA (DNA:RNA)
RNA: B1 RNA with G26A, G28C, G29A, U30A, U31A
DNA 1: CAATCTGAATTCCGGTCTCCC
DNA 2: TGGTGGCTACGACGGGATT
B23: UGCGUGC (DNA:RNA)
RNA: B1 RNA with C25U, G27C, G29U, U30G, U31C
DNA 1: CAATCTGAATTCCGGTCTCCC
DNA 2: TGGTGGCTACGACGGGATT
B24: CACAUGC (DNA:RNA)
RNA: B15 RNA with A25C, U26A, C29U, C30G, A31C
DNA 1: CAATCTGAATTCCGGTCTCCC
DNA 2: TGGTGGCTACGACGGGATT
B25: GCAUCUA (DNA:RNA)
RNA: B15 RNA with A25G, U26C, C27A, A28U, C30U
DNA 1: CAATCTGAATTCCGGTCTCCC
DNA 2: TGGTGGCTACGACGGGATT
B26: UCGUCCA (DNA:RNA)
RNA: B15 RNA with A25U, U26C, C27G, A28U
DNA 1: CAATCTGAATTCCGGTCTCCC
DNA 2: TGGTGGCTACGACGGGATT
B27: UCUCAGU (DNA:RNA)
RNA: B1 RNA with C25U, G26C, G27U, G28C, G29A, U30G
DNA 1: CAATCTGAATTCCGGTCTCCC
DNA 2: TGGTGGCTACGACGGGATT
B28: UCUCAAA (DNA:RNA)
RNA: B15 RNA with A25U, U26C, C27U, A28C, C29A, C30A
DNA 1: CAATCTGAATTCCGGTCTCCC
DNA 2: TGGTGGCTACGACGGGATT
B29: CGGAGAU (DNA:RNA)
RNA: B1 RNA with G28A, U30A
DNA 1: CAATCTGAATTCCGGTCTCCC
DNA 2: TGGTGGCTACGACGGGATT
B30: GUCUGAA (DNA:RNA)
RNA: B15 RNA with A25G, A28U, C29G, C30A
DNA 1: CAATCTGAATTCCGGTCTCCC
DNA 2: TGGTGGCTACGACGGGATT
B31: GUGCCCA (DNA:RNA)
RNA: B15 RNA with A25G, C27G, A28C
DNA 1: CAATCTGAATTCCGGTCTCCC
DNA 2: TGGTGGCTACGACGGGATT

Substitutions are numbered along the chain they refer to; changes in the protein carry UniProt numbers. This is one part of the list.

In this assay the target is T1, RBFOX1 RRM RbFoxmut (Fox-RRM*) (Homo sapiens, UniProt Q9NWB1 109-208, R118D;E147R;N151S;E152T).
T1 sequence: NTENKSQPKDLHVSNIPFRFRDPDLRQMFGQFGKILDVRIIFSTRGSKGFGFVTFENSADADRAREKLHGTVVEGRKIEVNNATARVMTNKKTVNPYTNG
Nature of the assay: EMSA; HiTS-Eq, 1 nM pool, 10 min; buffer printed only for the single-RNA assays: 10 mM Tris pH 7.5, 150 mM NaCl, 3.4 mM EDTA, 0.001% NP-40, 30 C. The note with it: tags: His6 N-terminal (pET28a); label: 5' 32P. Put shortly:
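These values rest on relative association constants, computed from read-count changes of each RNA species versus the control reaction and normalised to the cognate motif. Reads came from free RNA recovered by 8% native PAGE after purified RbFox RRM (wild type or mutant) at increasing concentrations was equilibrated for 10 min in 50 µL with 1 nM of a 5′-radiolabelled pool with 7 randomized nucleotides and DNA-annealed flanks.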
For the molecule B1, the binding signal was 0.115 KA relative to UGCAUGU.

Take B2: the binding signal is 0.127 KA relative to UGCAUGU. Regarding B3, the binding signal is 0.0794 KA relative to UGCAUGU. Next, B4: 0.112 KA relative to UGCAUGU; B5: 0.0928 KA relative to UGCAUGU; B6: 0.0846 KA relative to UGCAUGU. Next, B7: 0.132 KA relative to UGCAUGU; B8: 0.0837 KA relative to UGCAUGU; B9: 0.0966 KA relative to UGCAUGU. Consider B10, for which the binding signal is 0.0486 KA relative to UGCAUGU. B11: the binding signal was 0.0345 KA relative to UGCAUGU. On to B12, for which the binding signal was 0.0914 KA relative to UGCAUGU. On to B13, for which the binding signal was 0.134 KA relative to UGCAUGU. In the case of B14, the binding signal was 0.0649 KA relative to UGCAUGU. As for B15, the binding signal is 0.0972 KA relative to UGCAUGU. Take B16: the binding signal is 0.0999 KA relative to UGCAUGU. For B17, the binding signal is 0.122 KA relative to UGCAUGU.

For the molecule B18, the binding signal is 0.0894 KA relative to UGCAUGU.

Regarding B19, the binding signal is 0.095 KA relative to UGCAUGU. As for B20, the figure is 0.103 KA relative to UGCAUGU. For B21, the binding signal is 0.148 KA relative to UGCAUGU. Consider B22, for which the binding signal was 0.0953 KA relative to UGCAUGU. Take B23: the binding signal is 0.186 KA relative to UGCAUGU. On to B24, for which the binding signal was 0.105 KA relative to UGCAUGU. For the molecule B25, the binding signal is 0.288 KA relative to UGCAUGU. On to B26, for which the binding signal is 0.102 KA relative to UGCAUGU. Consider B27, for which the binding signal is 0.0795 KA relative to UGCAUGU. Next, B28: 0.0915 KA relative to UGCAUGU.

Consider B29, for which the binding signal is 0.104 KA relative to UGCAUGU. On to B30, for which the binding signal was 0.0932 KA relative to UGCAUGU. Next, B31: 0.0672 KA relative to UGCAUGU.
